± gives the standard error. Variants at the background level are over-represented here.
B1: glmS ribozyme (parent)
chain: AUAAAAGCGCCAGAACUACAGAAAUGUAGUUGACGAGGAGGAGGUUUAUCGAAUUUUCGGCGGAUGCCUCCAAA

What was measured:
Details in all cases: with glucosamine-6-phosphate
glucosamine-6-phosphate [1] = variants of: B1; assay: self-cleavage kobs at 40 uM GlcN6P; higher = faster cleavage; RNA array
Summary of the method: (§1)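 Barcoded glmS ribozyme variants on sequenced MiSeq chips were transcribed in situ by E. coli RNA polymerase and tracked through a hybridised Cy3 probe at 37 °C. Glucosamine-6-phosphate (40 μM to 10 mM) in HEPES/KCl/Mg(OAc)2 buffer was flowed in, and tiles were imaged over ~14 h. Signals were normalised to baseline and to non-cleaving reference variants; per-tile medians were fit to one- or two-exponential decays to give kobs. kcat and KM came from weighted Michaelis–Menten fits across concentrations.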

glucosamine-6-phosphate [2] = variants of: B1; assay: self-cleavage kobs at 640 uM GlcN6P; higher = faster cleavage; RNA array
Summary of the method: as §1

glucosamine-6-phosphate [3] = variants of: B1; assay: self-cleavage kobs at 10000 uM GlcN6P; higher = faster cleavage; RNA array
Summary of the method: as §1

glucosamine-6-phosphate [4] = variants of: B1; assay: self-cleavage kobs at 2500 uM GlcN6P; higher = faster cleavage; RNA array
Summary of the method: as §1

glucosamine-6-phosphate [5] = variants of: B1; assay: self-cleavage kobs at 160 uM GlcN6P; higher = faster cleavage; RNA array
Summary of the method: as §1

Row | Variant | self-cleavage kobs at 40 uM GlcN6P (glucosamine-6-phosphate [1]) | self-cleavage kobs at 640 uM GlcN6P (glucosamine-6-phosphate [2]) | self-cleavage kobs at 10000 uM GlcN6P (glucosamine-6-phosphate [3]) | self-cleavage kobs at 2500 uM GlcN6P (glucosamine-6-phosphate [4]) | self-cleavage kobs at 160 uM GlcN6P (glucosamine-6-phosphate [5])
1 | G13U G37C | < 1e-05 s⁻¹ | < 1e-05 s⁻¹ | < 1e-05 s⁻¹ | – | –
2 | A12C A15G G32C A36C A42U | < 1e-05 s⁻¹ | – | – | – | –
3 | A15U A39C G41C | < 1e-05 s⁻¹ | < 1e-05 s⁻¹ | – | < 1e-05 s⁻¹ | –
4 | A15U G43A G44U G62A | < 1e-05 s⁻¹ | – | < 1e-05 s⁻¹ | – | –
5 | C16A A42C A52G | < 1e-05 s⁻¹ | – | < 1e-05 s⁻¹ | – | –
6 | A12U G38C | < 1e-05 s⁻¹ | – | – | – | < 1e-05 s⁻¹
7 | C11U U47A U56C G63A | < 1e-05 s⁻¹ | – | – | – | –
8 | G26U C50G | 4.71e-05 ± 1.9e-05 s⁻¹ | – | 3.96e-05 ± 1.3e-05 s⁻¹ | – | –
9 | C16U U56G | 0.000579 ± 9.9e-05 s⁻¹ | 0.00302 ± 0.00067 s⁻¹ | 0.0241 ± 0.0047 s⁻¹ | 0.00709 ± 0.0016 s⁻¹ | 0.000979 ± 0.0002 s⁻¹
10 | G13C C16A | < 1e-05 s⁻¹ | – | – | – | < 1e-05 s⁻¹
11 | A15U G38U U45G A52U C61U | < 1e-05 s⁻¹ | – | < 1e-05 s⁻¹ | – | < 1e-05 s⁻¹
12 | A14U G60C | < 1e-05 s⁻¹ | – | – | < 1e-05 s⁻¹ | –
13 | A15C A48U | < 1e-05 s⁻¹ | – | – | – | –
14 | C16U C34U G43A U45A G51A | < 1e-05 s⁻¹ | – | – | – | –
15 | A15U A48C | < 1e-05 s⁻¹ | – | – | – | –
16 | A15U A48G | < 1e-05 s⁻¹ | – | – | – | < 1e-05 s⁻¹
17 | A14C G26A | 6.7e-05 ± 1.7e-05 s⁻¹ | 0.000887 ± 0.00023 s⁻¹ | 0.00166 ± 0.00037 s⁻¹ | 0.00142 ± 0.00041 s⁻¹ | –
18 | C16U U30G | 4.04e-05 ± 1.4e-05 s⁻¹ | 0.000244 ± 6.5e-05 s⁻¹ | 0.00235 ± 0.00062 s⁻¹ | 0.000944 ± 0.00032 s⁻¹ | 6.14e-05 ± 1.5e-05 s⁻¹
19 | A14G A39G G41A U55G U69C A73U | < 1e-05 s⁻¹ | – | – | – | –
20 | A12G U56C C67G | < 1e-05 s⁻¹ | < 1e-05 s⁻¹ | – | < 1e-05 s⁻¹ | –
21 | A15C C61G | < 1e-05 s⁻¹ | < 1e-05 s⁻¹ | < 1e-05 s⁻¹ | < 1e-05 s⁻¹ | < 1e-05 s⁻¹
22 | A14G A15C U31C G40C U54A | < 1e-05 s⁻¹ | – | – | – | –
23 | A15C U30G | 0.00258 ± 0.00062 s⁻¹ | 0.0305 ± 0.0089 s⁻¹ | – | – | 0.00591 ± 0.0015 s⁻¹
24 | C16U U49G G62U | < 1e-05 s⁻¹ | – | < 1e-05 s⁻¹ | – | –
25 | C11U A33U G35U A39U G60A | < 1e-05 s⁻¹ | – | – | – | –
26 | A14C G32A A42U U54G | < 1e-05 s⁻¹ | – | – | – | –

Source: the supplement of paper PMC7125110
